From paper PMC4336329 (PLoS ONE, 2015)
About 14,000 (4.5%) of roughly 310,000 compounds showed an effect of 50% or more. Effects have a minus sign here. This is one part of the list.

Each compound was assayed against human ether-à-go-go-related gene (hERG) potassium channel (human, UniProt Q12809) (assay: primary screen, population patch clamp on CHO cells stably expressing hERG).
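Further: peak tail current of the secondary pulse compared with the same well before compound.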

Chain of human ether-à-go-go-related gene (hERG) potassium channel (Q12809 whole entry, looked up): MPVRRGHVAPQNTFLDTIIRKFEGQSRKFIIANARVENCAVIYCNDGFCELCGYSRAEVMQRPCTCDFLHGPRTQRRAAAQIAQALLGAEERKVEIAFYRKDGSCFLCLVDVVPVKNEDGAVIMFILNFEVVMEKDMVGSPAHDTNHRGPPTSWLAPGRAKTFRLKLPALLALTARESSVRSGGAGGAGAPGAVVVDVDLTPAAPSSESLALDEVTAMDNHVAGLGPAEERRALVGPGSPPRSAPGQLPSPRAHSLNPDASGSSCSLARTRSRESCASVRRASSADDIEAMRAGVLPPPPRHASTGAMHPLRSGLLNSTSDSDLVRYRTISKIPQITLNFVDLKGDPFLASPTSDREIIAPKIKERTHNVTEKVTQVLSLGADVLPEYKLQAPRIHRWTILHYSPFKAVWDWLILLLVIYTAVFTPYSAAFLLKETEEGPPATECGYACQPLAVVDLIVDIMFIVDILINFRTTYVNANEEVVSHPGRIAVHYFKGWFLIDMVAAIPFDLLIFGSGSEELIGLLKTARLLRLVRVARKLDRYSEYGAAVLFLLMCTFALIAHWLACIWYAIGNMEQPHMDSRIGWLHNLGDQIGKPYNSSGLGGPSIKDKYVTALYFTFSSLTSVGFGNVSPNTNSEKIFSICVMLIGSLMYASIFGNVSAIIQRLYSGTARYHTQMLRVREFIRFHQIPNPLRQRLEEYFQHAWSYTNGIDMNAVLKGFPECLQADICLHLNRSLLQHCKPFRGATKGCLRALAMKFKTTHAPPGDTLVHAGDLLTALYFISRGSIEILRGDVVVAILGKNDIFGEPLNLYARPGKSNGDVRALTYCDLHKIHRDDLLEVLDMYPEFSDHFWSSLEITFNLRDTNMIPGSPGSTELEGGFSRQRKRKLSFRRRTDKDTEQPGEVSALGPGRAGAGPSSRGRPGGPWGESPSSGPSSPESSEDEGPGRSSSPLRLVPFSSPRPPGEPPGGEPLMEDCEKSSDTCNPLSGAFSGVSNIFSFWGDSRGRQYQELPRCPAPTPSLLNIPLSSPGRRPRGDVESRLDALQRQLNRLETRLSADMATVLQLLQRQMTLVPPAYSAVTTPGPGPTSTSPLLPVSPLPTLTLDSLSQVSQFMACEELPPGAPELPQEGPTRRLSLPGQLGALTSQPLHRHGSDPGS

Row | Structure (SMILES) | hERG current change (%, negative = inhibition) at 10uM [%]
1 | Cc1cc(C=O)c(C)n1-c1ccc(N2CCOCC2)cc1 | -10.8
2 | CCCCNC(=O)COC(=O)c1ccc(NC(C)=O)cc1 | 15.5
3 | CCN(CC(=O)Nc1ccc2c(c1)OCCO2)C(=O)/C=C/c1ccc(F)cc1 | -7.2
4 | Cc1cc(C(=O)NNC(=O)c2ccc(C)s2)c(C)o1 | 3.91
5 | Cc1ccc(Cn2c(-c3nonc3N)nc3ccccc32)cc1 | 3.95
6 | O=C(O)C1CCC1C(=O)Nc1nc(-c2ccc(Cl)s2)cs1 (stereo not shown) | 15.3
7 | COc1cc(Br)c(Br)cc1N | 7.73
8 | Cc1ccc(C(=O)Nc2nc(=O)n(C)s2)cc1 | 19.4
9 | CCOC(=O)C1CCN(S(=O)(=O)c2cccc(-c3cn4ccccc4n3)c2)CC1 | -60.4
10 | COc1ccc(NS(=O)(=O)c2cc(-c3cnc(C4CC4)o3)ccc2C)cc1 | 6.02
11 | CCCn1c2ccccc2c2cnn(CC(=O)NC3CCCC(C)C3C)c(=O)c21 (stereo not shown) | -0.0339
12 | COc1ccc(CCNC(=O)c2ccc(CNS(=O)(=O)c3ccccc3)cc2)cc1OC | -11.1
13 | C=CCCCCCCCCC(=O)Nc1ncccn1 | 6.59
14 | Cc1cc(O)c(Sc2ccc(Cl)cc2)c(=O)[nH]1 | 12.1
15 | C=CCNC(=O)C1=NN(c2c(F)c(F)cc(F)c2F)C(=O)CC1 | 47.5
16 | NC(=O)C1CCN(C(=O)CN2CCc3ccccc32)CC1 | -9.54
17 | Cc1ccccc1OCCCSc1nc2ccccc2[nH]1 | 11.5
18 | Cc1ccc(C(=O)C2=C(O)C(=O)N(c3ncccn3)C2c2ccc(Cl)cc2)o1 (stereo not shown) | 2.43
19 | Cc1cc(Cl)ccc1NC(=S)NCC(O)c1ccccc1 (stereo not shown) | 2.79
20 | COc1ccc(N2CCN(C(=O)c3cn(C)c4ccc(S(=O)(=O)N5CCOCC5)cc4c3=O)CC2)cc1 | 11.5
21 | O=C(C1CCCO1)N1CCN(C(=S)Nc2ccc(Cl)cc2Cl)CC1 (stereo not shown) | -9.7
22 | COc1cc(OC)cc(C(=O)NCC2CCCN(C(=O)c3oc(C)cc3C)C2)c1 (stereo not shown) | -18.5

Row | Structure (SMILES) | hERG current change (%, negative = inhibition) at 10uM [%]
23 | O=S(=O)(Nc1ccc(-c2nc3ccccc3o2)cc1)c1ccccc1 | 0.304
24 | CC(C)NC(=O)C1CCN(C2CCN(C(=O)c3ccc4cccc(F)c4n3)CC2)CC1 | 1.93
25 | Cc1cc(C)cc(CC2CC(=O)N(c3cc(C)ccc3C)C2=O)c1 (stereo not shown) | 9.28
26 | CCOc1ccc(N(CC(=O)Nc2ccc(OC)cc2OC)S(=O)(=O)c2c(C)[nH]c(=O)[nH]c2=O)cc1 | 23.1
27 | CCC(Oc1ccccc1)C(=O)O/N=C(\N)c1ccc(OC)c(OC)c1 (stereo not shown) | 2.28
28 | CCc1ccccc1N(CC(=O)N1CCCCCC1)S(C)(=O)=O | 20.7
29 | O=C(N/N=C/c1sc(N2CCOCC2)nc1-c1ccccc1)c1ccccc1F | 10.4
30 | CCOc1ccc(S(=O)(=O)N2CCCC(C(=O)NCc3ccncc3)C2)cc1 (stereo not shown) | -15
31 | CCc1cc(=O)oc2c(C)c(O[C@@H]3O[C@H](CO)[C@@H](O)[C@H](O)[C@H]3O)ccc12 | 9.49
32 | O=C(c1cccs1)N1CCN(c2ncc(C(F)(F)F)cc2Cl)CC1 | -65
33 | CCOc1ccc(/C(O)=C2/C(=O)C(=O)N(c3ccccn3)C2c2ccc(C)cc2)c(C)c1 (stereo not shown) | 10.2
34 | Cc1ccccc1N1CCN(C(=O)NCc2cccc(Cl)c2)CC1 | 10
35 | CC(=O)N1CCN(C(=O)c2cccc(S(=O)(=O)N3CCN(c4ccccc4)CC3)c2)CC1 | -16.5
36 | O=c1[nH]nc(-c2ccc(F)cc2)cc1-c1ccccc1 | 15.1
37 | C(=C\c1ccccc1)/CSc1nnc(-c2cccnc2)n1Cc1ccco1 | -70.8
38 | CC1(C)C(=O)C2(CCCCC2)C(=O)OC1C(=O)c1ccccc1 (stereo not shown) | -12.3
39 | Cc1cc2nc(C)c(Cc3ccccc3)c(=O)n2[nH]1 | 9.91
40 | O=C(CCNC(=O)c1ccc([N+](=O)[O-])cc1)NCCC1=CCCCC1 | -21.3
41 | Cc1ccc(CN2CCCN(Cc3c(C)cc(C)cc3C)S2(=O)=O)cc1 | 19.8
42 | Clc1ccc2c(c1)C(N1CCNCC1)=Nc1ccccc1O2 | 0.229
43 | Nc1ccn([C@H]2C[C@H](O)[C@@H](CO)O2)c(=O)n1.O | 8.46
44 | COc1ccc(C)cc1NC(=O)CCN1CCN(C/C=C/c2ccccc2)CC1 | -77.1

Row | Structure (SMILES) | hERG current change (%, negative = inhibition) at 10uM [%]
45 | CCCc1nnc(NC(=O)NCCN2C(=O)C3C4C=CC(C4)C3C2=O)s1 (stereo not shown) | 7.25
46 | CCN(CC(=O)Nc1cccc(OC)c1)CC(=O)Nc1cccc2ccccc12 | -10.2
47 | COc1cc(NC(=O)c2ccc(C)c([N+](=O)[O-])c2)ccc1NC(=O)c1ccco1 | 15.6
48 | CCCCN(C(=O)COC(=O)c1nc2nccc(C)n2n1)C1CCS(=O)(=O)C1 (stereo not shown) | 1.19
49 | Cc1cc(C)nc(NC(=NCCc2c[nH]c3ccccc23)NC(=O)C(C)(C)C)n1 | -4.06
50 | CN(Cc1nc2ccccc2n1C)S(C)(=O)=O | -5.28
51 | CC(=O)SCCC(=O)N1C(C)CCCC1C(=O)O (stereo not shown) | -2.53
52 | CN(Cc1c(F)cccc1Cl)S(=O)(=O)c1cccs1 | -19.8
53 | NC(=O)c1[nH]cnc1N | 5.75
54 | CC(=O)N1N=C(c2ccc(NS(=O)(=O)c3ccccc3)cc2)CC1c1ccco1 (stereo not shown) | -12.2
55 | O=C(COC(=O)c1cnccn1)c1ccc2c(c1)CCCC2 | -0.851
56 | CC(=O)Nc1ccc(NC(=O)CSc2ccc(-c3ccc4c(c3)OCO4)nn2)cc1 | -8.17
57 | Cc1ccccc1C(=O)NCC(=O)NNC(=S)NC(=O)c1ccccc1 | 1.49
58 | CC1(c2nnc(-c3ccc(Cl)cc3)o2)CC(c2c(Cl)cccc2Cl)=NO1 (stereo not shown) | 1.13
59 | CCCn1nnnc1NC(=O)c1cc(Br)ccc1OC | -8.29
60 | O=C(CSc1nnc(NC(=O)c2cccc(Br)c2)s1)NCC1CCCO1 (stereo not shown) | 12.1
61 | CCCCS(=O)CC(O)COc1ccc(C(C)(C)C)cc1 (stereo not shown) | -7.18
62 | COc1ccc(Oc2cccc(Cl)c2CNC(=O)CC(C)(C)CC(=O)O)cc1 | -35.5
63 | C=CCn1c(SCc2nc(N)nc(N(C)C)n2)nnc1-c1cccnc1 | 4.04
64 | COc1ccc(/C=C/C(=O)N(C)Cc2cccs2)cc1S(=O)(=O)N1CCOCC1 | -8.34
65 | CC(C)C(NS(=O)(=O)/C=C/c1ccccc1)C(=O)NCc1ccc(F)cc1 (stereo not shown) | 25.3
66 | O=C1[C@H]2[C@@H](c3ccc(F)cc3)N3C(=O)N(c4ccccc4)C(=O)[C@@]3(Cc3ccccc3)[C@H]2C(=O)N1C1CCCCC1 | -0.585

Row | Structure (SMILES) | hERG current change (%, negative = inhibition) at 10uM [%]
67 | Cn1c(=O)c2c(nc(N3CCN(Cc4ccccc4)CC3)n2CCCc2ccccc2)n(C)c1=O | -46
68 | CSc1ncccc1C(=O)NCCc1ccc(S(N)(=O)=O)cc1 | 13.8
69 | O=C(Cc1ccc(F)cc1)N/N=C/c1ccncc1 | -8.56
70 | Cc1cc(C)cc(NC(=O)COc2ccc(C(=S)N3CCOCC3)cc2)c1 | 2.38
71 | CCCC(=O)C1=C(N(C)c2ccccc2)CC(C)(C)C(C(=O)OC)C1=O (stereo not shown) | 1.82
72 | Cn1cc([N+](=O)[O-])c(C(=O)Nc2ccn(Cc3c(F)c(F)cc(F)c3F)n2)n1 | -9.84
73 | CCc1cc(Cn2nc(-c3ccccc3)cc2C(=O)NCc2ccccc2OC)on1 | -14.6
74 | CC(=O)Nc1cccc(NC(=O)CS(=O)(=O)c2cn(CC(=O)N3CCCC3)c3ccccc23)c1 | 16.7
75 | COc1ccc(S(=O)(=O)NCCc2ccco2)cc1OC | 11.2
76 | O=S(=O)(Nc1ccc(N2CCCCC2)cc1)c1ccccc1F | 3.71
77 | Cc1cc(Cl)ccc1N(CC(=O)NCCSCc1ccco1)S(C)(=O)=O | 7.12
78 | COc1ccc(C(=O)OCn2nnc3ccccc3c2=O)cc1 | -10.4
79 | CCNC(=O)c1sc(=S)n(-c2ccc(C)cc2)c1N | -2.32
80 | O=c1ccc(-c2ccc(S(=O)(=O)Nc3cccc(F)c3)o2)n[nH]1 | -2.54
81 | Cn1cc(CNC(=O)C2CCC(=O)N(Cc3ccccc3F)C2)cn1 (stereo not shown) | 9.9
82 | O=C(NCCCCCCNC(=O)c1cccs1)c1cccs1 | 16.1
83 | COc1cc2c(cc1OC)CN(c1ncccc1[N+](=O)[O-])CC2 | -30.5
84 | CCOC(=O)C1(Cc2ccccc2C(F)(F)F)CCN(Cc2ccc(COC)o2)CC1 | -1.74
85 | O=C(COC(=O)CCN=C1NS(=O)(=O)c2ccccc21)NC1CCCCCCC1 | -7.06
86 | CC(C)c1nc2c(s1)CCc1onc(-c3cccc([N+](=O)[O-])c3)c1-2 | 16.4
87 | Cc1onc(-c2c(Cl)cccc2Cl)c1C(=O)O/N=C(\C#N)c1ccccc1 | 10.9
88 | Cn1c(/N=C/c2ccccc2[N+](=O)[O-])nc2ccccc21 | 8.71
